± gives the standard deviation of the averaged measurements. Some of the results follow.

This assay concerns PfAP2-EXP AP2 domain (GST-tagged). Briefly: gcPBM binding intensity (ln(normalized median fluorescence intensity)); higher = stronger DNA binding. In short, it runs like this:
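Probes on an Agilent 4 × 180k array were primer-extended, double-stranded and 36 bp long, taken from intergenic genomic regions, with negative controls added. GST-tagged P. falciparum DNA-binding domains from E. coli, about 25 μg on average, were applied to the array for 1 h in 1× PBS containing 1% milk, 0.2 mg/ml BSA, 0.5% salmon testes DNA and 0.03% Triton X-100. Binding intensity, obtained after Alexa488 anti-GST antibody detection and a 488 nm scan, is the highest Masliner-normalised natural-log median intensity across replicate spots of either probe orientation.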
Regarding “ACGAATTAAATTTGCTGTACCAAAAAGAAAACAATA [XGTACX_site5511]”, the “gcPBM binding intensity (ln)” value was found to be 8.65 ± 0.39.
Consider “ATAATATATTTATAATGTACAAACCATTTGTATTAA [XGTACX_site4370]”, for which the “gcPBM binding intensity (ln)” value was found to be 8.3 ± 0.4.
Then “TGGTTTCAATAATTAATAAAATATATTATTGTGAAA [CACACA_negctrl_site442]”, with 7.95 ± 0.41; and “TCTAACATATAATATTCACACACATATATATATTAT [CACACA_site8236]”, with 8.63 ± 0.5; and “ATTATTATTATATTTTGTACATATGTAACAATATAT [XGTACX_site5780]”, with 8.57 ± 0.25.
Take “TGCATATTACTTTTTCACATAAAAATGATCCGATTA [GTGCAC_negctrl_site526]”: the “gcPBM binding intensity (ln)” value came to 8.4 ± 0.42.
Consider “ATATTATGAATTGTCACACATATATTTAAAAATGTA [CACACA_site4852]”, for which the “gcPBM binding intensity (ln)” value came out at 8.32 ± 0.38.
With “TAAATATGTGTATGTAGTACATAGTGTTTTTTTTTT [XGTACX_site3748]”, the “gcPBM binding intensity (ln)” value was 8.13 ± 0.31.
“AAAATATAAAAATGAAGTACAAAAAAAAAAAAAAAA [XGTACX_site8132]”: the “gcPBM binding intensity (ln)” value came out at 8.41 ± 0.15.
Take “GTTATACACATCAACACACACATACAACGTGGTGTA [CACACA_site6677]”: the “gcPBM binding intensity (ln)” value came out at 8.43 ± 0.28.
With “AAAAAATGACTTAATATGAGCATATATTATGTTGTT [CACACA_negctrl_site1609]”, the “gcPBM binding intensity (ln)” value was found to be 8.23 ± 0.49.
In the case of “AAAAAAAATTAAATAAATAAATATACACATATATAT [GTGCAC_negctrl_site394]”, the “gcPBM binding intensity (ln)” value was found to be 8.27 ± 0.24.
For CATTAAAATTGAGAGATGCACTTTTTAAGACCTTGT the value was 8.42 ± 0.2; for “AAAACATTGTTTATGTGTACATAATTATATTTACAA [XGTACX_site6926]”, 8.45 ± 0.39.
In the case of “TTTTTTTTTTTTTTTTTTTTACCCCTTTTTCAAAAA [CACACA_negctrl_site1524]”, the “gcPBM binding intensity (ln)” value was determined as 8.15 ± 0.43.
Take “AACTAATTCATGTTATATTAGATAAAAAAAAAAAAA [TGCATGCA_negctrl_site340]”: the “gcPBM binding intensity (ln)” value turned out to be 8.38 ± 0.4.
For “ATATTTTTTAATTTTACACACCATATAAAATAATTC [CACACA_site7339]” the value was 8.42 ± 0.4; for “AAATATATTATATGTACACACAAAATTAAGGGATAT [CACACA_site1375]”, 9.06 ± 0.28.
With “ATCAATACTTTTTTGGGTACATAAATATATATATAT [XGTACX_site8436]”, the “gcPBM binding intensity (ln)” value was 9.99 ± 0.18.
For “GTGTTTGAAAATAAAGCATGCAAATATATTTGAAAT [TGCATGCA_site386]” the value was 9.37 ± 0.69.
As to “AAAATAATAAATAAATGTACATATATATATATATAT [XGTACX_site3078]”, the “gcPBM binding intensity (ln)” value is 10.2 ± 0.47.
In the case of “TTTTTTTTGTTCATTGTGCACATTGCTTGCATGGAA [GTGCAC_site9693]”, the “gcPBM binding intensity (ln)” value is 9.14 ± 0.29.
As for “ATAAGATTATACAATTGTACGTTGTTCAAGATAAGG [XGTACX_site191]”, the “gcPBM binding intensity (ln)” value stood at 8.64 ± 0.4.
For “TCTTATTCAAACGTAAAACGAAGAAGAAAAAAAAAA [CACACA_negctrl_site149]” the value was 8.49 ± 0.41; for “ATATACTATATTTTAACACACAAAAAAAAAAAATAT [CACACA_site1091]”, 8.59 ± 0.49; for “AAATTATATATATTACGTACATAGAACTTTACAGAA [XGTACX_site6646]”, 8.53 ± 0.3.
In the case of “ATGTTACACCGACACACACACATAAAAAAACAAAAA [CACACA_site5750]”, the “gcPBM binding intensity (ln)” value was 8.61 ± 0.64.
Turning to “ATAAATAAATAAATAAATAAATATACATATACATAT [CACACA_negctrl_site205]”, the “gcPBM binding intensity (ln)” value was found to be 8.33 ± 0.37.
For the sequence “AGCATTTTAAGTTATACACACATTTTGAATCTATAT [CACACA_site7599]”, the “gcPBM binding intensity (ln)” value stood at 8.6 ± 0.4.
For “AAGAAATAAAAAGAATGTACACAATATGTATTATAA [XGTACX_site4733]”, the “gcPBM binding intensity (ln)” value was 8.68 ± 0.25.
“TGGACAATTGTTTATTGTACTTAAATTTTATGTTCT [XGTACX_site8974]”: the “gcPBM binding intensity (ln)” value was 8.19 ± 0.34.
As for “TTGAAAAATGAGCACACACACAAATACATACATATT [CACACA_site3231]”, the “gcPBM binding intensity (ln)” value was 8.6 ± 0.45.
As for “TATCCATATTTGTTCACACACACACCGATTTATATA [CACACA_site5888]”, the “gcPBM binding intensity (ln)” value was 8.99 ± 0.46.
For “CAAAAAACAACAGATCGTACAAAATATTATATATAT [XGTACX_site2285]” the value was 8.89 ± 0.24; for “TTTTAACAAAAAAAAAGAAAAGAAAAGAAAATAATA [XGTACX_negctrl_site530]”, 8.41 ± 0.61.
“TTAACTCTGGAGAAAAGTACATAGTATCTGGTAACA [XGTACX_site4941]”: the “gcPBM binding intensity (ln)” value stood at 8.54 ± 0.42.
Consider “TATATTTATATCCACTTCGTTTAACGCACAGATATA [CACACA_negctrl_site954]”, for which the “gcPBM binding intensity (ln)” value stood at 8.93 ± 0.23.
As to “TGAGATATAAAAATATGTACTTATGTATAAATATTT [XGTACX_site7746]”, the “gcPBM binding intensity (ln)” value came to 8.24 ± 0.35.
For “CCAAATTTATTTTGTAGTACTCCGTATAGATCAACA [XGTACX_site7945]”, the “gcPBM binding intensity (ln)” value worked out at 8.48 ± 0.35.
Then “ATTATAAAAATATATTGTACACAAAAATGTTTATAT [XGTACX_site5066]”, with 8.21 ± 0.25; and “AAGTTTTTTTTTAACACACACATAATAAAATAAATA [CACACA_site446]”, with 8.46 ± 0.31; and “ACTATCATTCATAGGTGTACCTAAATATATATATAT [XGTACX_site1696]”, with 9.96 ± 0.18.
On to “GATAATTACGGACACACACACACACGCACAACTAAA [CACACA_site7254]”, for which the “gcPBM binding intensity (ln)” value was determined as 8.96 ± 0.16.
Regarding “CGAATATATTCTAGACGTACTATATAATATATATAT [XGTACX_site4953]”, the “gcPBM binding intensity (ln)” value came out at 9.29 ± 0.18.
TCTTTTTCTTCTTATGTGCACATCAATTATGCTTCT: the “gcPBM binding intensity (ln)” value stood at 9.33 ± 0.35.
Turning to “ATAATAAAAATATATACATGCATTATTATATATATA [TGCATGCA_site799]”, the “gcPBM binding intensity (ln)” value stood at 8.97 ± 0.16.
For “CAACAATTTCGTCATACACACATTCAGAATATAGAT [CACACA_site7166]”, the “gcPBM binding intensity (ln)” value was 8.62 ± 0.52.
With “TTATTTCGAAGAAAATGTACATATATAAATATATAC [XGTACX_site3308]”, the “gcPBM binding intensity (ln)” value was 8.35 ± 0.41.
On to “ATAATATTTTTTAATTGTACGTTCCATTTTTTTAAA [XGTACX_site1227]”, for which the “gcPBM binding intensity (ln)” value came to 8.78 ± 0.42.
Turning to “TTTCTTTTAATAATTAAATATTTATTTATGATTATA [TGCATGCA_negctrl_site30]”, the “gcPBM binding intensity (ln)” value was determined as 8.27 ± 0.53.
For “TACATACATATATTATGTACATATTTTATTTTTATT [XGTACX_site1642]” the value was 8.65 ± 0.31.
For the sequence “AAGCATACATCAAGCACACACACACCCACAGAGACA [CACACA_site4362]”, the “gcPBM binding intensity (ln)” value was found to be 8.68 ± 0.47.
On to AAAAAAAATTCGTGTGTGCGCATATATAATATATAA, for which the “gcPBM binding intensity (ln)” value was determined as 8.94 ± 0.33.
Take “ATAAATATATATATCACACATATATAATTATATATA [CACACA_site4787]”: the “gcPBM binding intensity (ln)” value came out at 8.46 ± 0.3.
Turning to “TATGTAGTTTTAAAGTGTACTTATATATATTAATTG [XGTACX_site378]”, the “gcPBM binding intensity (ln)” value was determined as 8.42 ± 0.34.
For “AATATAAATAAAAACACACACAATGGTACATATATA [CACACA_site3671]”, the “gcPBM binding intensity (ln)” value is 8.92 ± 0.37.
For “ATTGCAAGTTACTTGTGTACTTATAAGATTAAAAGA [XGTACX_site7696]”, the “gcPBM binding intensity (ln)” value came to 8.77 ± 0.45.

The record behind these values is the supplement of paper PMC11417369.
